Experimental data: the supplement of paper PMC8728848
The other results are listed elsewhere or left out.

What was measured:
Experiment in all cases: glycan array binding signal (z-score within array); higher = stronger binding
Details in all cases: glycan notation: IUPAC condensed, linker removed
[1] = molecular target: Gal(a1-3)Gal(b1-4)GlcNAc(b1-2)Man
Summary of the method: (§1)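 Negative Z-scores can be read as non-binding. The Z-score is calculated within each array and then averaged across arrays of one protein sequence at different concentrations or buffers and across linkers. Arrays, 3228 in all, were curated from the Consortium for Functional Glycomics database and kept only where the protein sequence was available.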

[2] = molecular target: Gal(a1-3)Gal(b1-4)GlcNAc(b1-2)Man(a1-3)[Gal(a1-3)Gal(b1-4)GlcNAc(b1-2)Man(a1-6)]Man(b1-4)GlcNAc(b1-4)GlcNAc
Summary of the method: as §1

[3] = molecular target: Gal(a1-3)Gal(b1-4)GlcNAc(b1-3)GalNAc
Summary of the method: as §1

[4] = molecular target: Gal(a1-3)Gal(b1-4)GlcNAc(b1-6)GalNAc
Summary of the method: as §1

[5] = molecular target: Gal(a1-3)Gal(b1-4)[Fuc(a1-3)]GlcNAc
Summary of the method: as §1

[6] = molecular target: Gal(a1-3)Gal(b1-4)[Fuc(a1-3)]GlcNAc(b1-2)Man(a1-3)[Gal(a1-3)Gal(b1-4)[Fuc(a1-3)]GlcNAc(b1-2)Man(a1-6)]Man(b1-4)GlcNAc(b1-4)GlcNAc
Summary of the method: as §1

[7] = molecular target: Gal(a1-3)GalNAc
Summary of the method: as §1

[8] = molecular target: Gal(a1-3)[Gal(a1-4)]Gal(b1-4)GlcNAc
Summary of the method: as §1

[9] = molecular target: Gal(a1-4)Gal(b1-3)GlcNAc(b1-2)Man(a1-3)[Gal(a1-4)Gal(b1-3)GlcNAc(b1-2)Man(a1-6)]Man(b1-4)GlcNAc(b1-4)GlcNAc
Summary of the method: as §1

[10] = molecular target: Gal(a1-4)Gal(b1-4)Glc
Summary of the method: as §1

[11] = molecular target: Gal(a1-4)Gal(b1-4)GlcNAc
Summary of the method: as §1

[12] = molecular target: Gal(a1-4)Gal(b1-4)GlcNAc(b1-2)Man(a1-3)[Gal(a1-4)Gal(b1-4)GlcNAc(b1-2)Man(a1-6)]Man(b1-4)GlcNAc(b1-4)GlcNAc
Summary of the method: as §1

[13] = molecular target: Gal(a1-4)Gal(b1-4)GlcNAc(b1-3)Gal(b1-4)Glc
Summary of the method: as §1

[14] = molecular target: Gal(a1-4)GlcNAc
Summary of the method: as §1

[15] = molecular target: Gal(a1-6)Glc
Summary of the method: as §1

[16] = molecular target: Gal(b1-2)Gal
Summary of the method: as §1

[17] = molecular target: Gal(b1-3)Gal
Summary of the method: as §1

[18] = molecular target: Gal(b1-3)Gal(b1-4)GlcNAc
Summary of the method: as §1

[19] = molecular target: Gal(b1-3)GalNAc
Summary of the method: as §1

[20] = molecular target: Gal(b1-3)GalNAc(a1-3)[Fuc(a1-2)]Gal(b1-4)Glc
Summary of the method: as §1

[21] = molecular target: Gal(b1-3)GalNAc(a1-3)[Fuc(a1-2)]Gal(b1-4)GlcNAc
Summary of the method: as §1

[22] = molecular target: Gal(b1-3)GalNAc(b1-3)Gal
Summary of the method: as §1

[23] = molecular target: Gal(b1-3)GalNAc(b1-3)Gal(a1-4)Gal(b1-4)Glc
Summary of the method: as §1

[24] = molecular target: Gal(b1-3)GalNAc(b1-4)Gal(b1-4)Glc
Summary of the method: as §1

[25] = molecular target: Gal(b1-3)GalNAc(b1-4)[Neu5Ac(a2-3)]Gal(b1-4)Glc
Summary of the method: as §1

[26] = molecular target: Gal(b1-3)GlcNAc
Summary of the method: as §1

[27] = molecular target: Gal(b1-3)GlcNAc(a1-3)Gal(b1-4)GlcNAc
Summary of the method: as §1

[28] = molecular target: Gal(b1-3)GlcNAc(a1-6)Gal(b1-4)GlcNAc
Summary of the method: as §1

[29] = molecular target: Gal(b1-3)GlcNAc(b1-2)Man
Summary of the method: as §1

[30] = molecular target: Gal(b1-3)GlcNAc(b1-2)Man(a1-3)[Gal(b1-3)GlcNAc(b1-2)Man(a1-6)]Man(b1-4)GlcNAc(b1-4)GlcNAc
Summary of the method: as §1

[31] = molecular target: Gal(b1-3)GlcNAc(b1-2)Man(a1-3)[Gal(b1-3)GlcNAc(b1-2)Man(a1-6)]Man(b1-4)GlcNAc(b1-4)[Fuc(a1-6)]GlcNAc
Summary of the method: as §1

[32] = molecular target: Gal(b1-3)GlcNAc(b1-2)Man(a1-3)[GlcNAc(b1-4)][Gal(b1-3)GlcNAc(b1-2)Man(a1-6)]Man(b1-4)GlcNAc(b1-4)GlcNAc
Summary of the method: as §1

[33] = molecular target: Gal(b1-3)GlcNAc(b1-2)[Gal(b1-3)GlcNAc(b1-6)]Man(a1-6)[Gal(b1-3)GlcNAc(b1-2)Man(a1-3)]Man(b1-4)GlcNAc(b1-4)GlcNAc
Summary of the method: as §1

[34] = molecular target: Gal(b1-3)GlcNAc(b1-3)Gal(b1-3)GlcNAc
Summary of the method: as §1

[35] = molecular target: Gal(b1-3)GlcNAc(b1-3)Gal(b1-4)Glc
Summary of the method: as §1

[36] = molecular target: Gal(b1-3)GlcNAc(b1-3)Gal(b1-4)GlcNAc
Summary of the method: as §1

[37] = molecular target: Gal(b1-3)GlcNAc(b1-3)Gal(b1-4)GlcNAc(b1-2)Man(a1-3)[Gal(b1-3)GlcNAc(b1-3)Gal(b1-4)GlcNAc(b1-2)Man(a1-6)]Man(b1-4)GlcNAc(b1-4)GlcNAc
Summary of the method: as §1

B1: Cohesin-marm-DC-ASGPR (protein)
chain: LDITSHHHHHHDDLDAVRIKVDTVNAKPGDTVRIPVRFSGIPSKGIANCDFVYSYDPNVLEIIEIEPGDIIVDPNPDKSFDTAVYPDRKIIVFLFAEDSGTGAYAITKDGVFATIVAKVKEGAPNGLSVIKFVEVGGFANNDLVEQKTQFFDGGVNVGDTTEPATPTTPVTTPTTTDDLDAASSKFQRDLVTLRTDFSNFTSNTLAEIQALTSQGSSLQETIASLKAEVEGHKQELQAGASELQEHNKQKAHLGRCPHTCVCPSSFVCVPVHSEILLRVQQLVQDLNKLSCQVAILKNNATTERTCCPINWVEHQGSCYWFSRSGKTWPEAERYCQLENTHLVVINSREEQNFVQAHLGSAYTWMGLSDPEGVWKWVDGTDYSSGFQNWKPGQPDDWQGHGLGGGEDCAHFHPDGRWNDDVCQRSYHWVCEAGLTQASQDSHAS
[1]
  glycan array binding signal (z-score): -0.224
[2]
  glycan array binding signal (z-score): -0.186
[3]
  glycan array binding signal (z-score): -0.3
[4]
  glycan array binding signal (z-score): 3.96
[5]
  glycan array binding signal (z-score): -0.243
[6]
  glycan array binding signal (z-score): -0.244
[7]
  glycan array binding signal (z-score): -0.297
[8]
  glycan array binding signal (z-score): -0.307
[9]
  glycan array binding signal (z-score): -0.256
[10]
  glycan array binding signal (z-score): -0.302
[11]
  glycan array binding signal (z-score): -0.301
[12]
  glycan array binding signal (z-score): -0.267
[13]
  glycan array binding signal (z-score): -0.301
[14]
  glycan array binding signal (z-score): -0.223
[15]
  glycan array binding signal (z-score): -0.166
[16]
  glycan array binding signal (z-score): -0.014
[17]
  glycan array binding signal (z-score): -0.286
[18]
  glycan array binding signal (z-score): -0.3
[19]
  glycan array binding signal (z-score): -0.247
[20]
  glycan array binding signal (z-score): -0.298
[21]
  glycan array binding signal (z-score): -0.296
[22]
  glycan array binding signal (z-score): -0.3
[23]
  glycan array binding signal (z-score): 0.884
[24]
  glycan array binding signal (z-score): -0.301
[25]
  glycan array binding signal (z-score): 0.852
[26]
  glycan array binding signal (z-score): -0.281
[27]
  glycan array binding signal (z-score): -0.31
[28]
  glycan array binding signal (z-score): -0.281
[29]
  glycan array binding signal (z-score): -0.212
[30]
  glycan array binding signal (z-score): -0.298
[31]
  glycan array binding signal (z-score): -0.3
[32]
  glycan array binding signal (z-score): -0.218
[33]
  glycan array binding signal (z-score): -0.289
[34]
  glycan array binding signal (z-score): -0.282
[35]
  glycan array binding signal (z-score): -0.303
[36]
  glycan array binding signal (z-score): -0.293
[37]
  glycan array binding signal (z-score): -0.292
